Source: ChEMBL document CHEMBL1201862, “PubChem BioAssay data set” (2004)
Where a name gives a salt, the structure may show the parent alone.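 In this assay, cells in 96-well plates receive the compound at five concentrations for 48 hours. Endpoints are linearly interpolated between the surrounding concentrations. GI50 = concentration required for 50% inhibition of growth.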 Active and inactive are the calls of the source. Rule as the data show it: active = GI50 up to about 1.1 µM and inactive = higher.

The compounds below were run on NCI-H322M (assay: DTP human tumour cell line panel, 48 h).
With `CC(C)C1COC(c2ccc3ccccc3c2-c2c(O[Si](C)(C)C(C)(C)C)ccc3ccccc23)=N1` (stereo unspecified) the GI50 was inactive: 17.1 µM.
With `COC(=O)C(CCSC)NC(=O)CNC(=O)CSc1nnc(COc2ccc(Cl)cc2)n1-c1ccccc1` (stereo unspecified) the GI50 was inactive: 18.2 µM.
For `S=c1[nH]nc(Cn2c3ccc(Br)cc3c3nc4ccccc4nc32)n1C1CCCCC1`, the GI50 was inactive: 34.3 µM.
`Cc1cccc(NC(=O)C(=O)Cc2nc3ccccc3nc2O)c1C` was tested, and the GI50 was inactive: > 100 µM.
With `CC(=O)OC1CC[C@@]2(C)C(=CC[C@@H]3[C@@H]2CC[C@]2(C)C(OC(C)=O)[C@H](n4ccnc4)C[C@@H]32)C1` (stereo partly specified) the GI50 was inactive: > 100 µM.
With `CC(C)=CCC[C@@H](C)/C=C/C=C(\C)C(=O)CC[C@@H]1CC[N@+]2(C)CCCC[C@H]12` the GI50 was inactive: > 100 µM.
`COc1cc2c(oc(=O)c3c4oc([Si](C)(C)C)cc4cc(OC)c23)c2cccc(O)c12` was tested, and the GI50 was inactive: > 100 µM.
For `C(=N\Nc1nnc(-c2nnc(N/N=C/c3ccccc3)o2)o1)/c1ccccc1`, the GI50 was inactive: > 10 µM.
`O=C(O)c1ccccc1C1c2ccccc2Oc2ccccc21` was tested, and the GI50 was inactive: > 100 µM.
In the case of `CC[C@]12C=CCN3CC[C@@]4(c5cc(Br)c(OC)cc5N(C)[C@H]4[C@@](O)(C(=O)NN)[C@@H]1O)[C@@H]32`, the GI50 is reported as inactive: > 100 µM.
For `CCCCCCSc1nc(N)nc2nc[nH]c12`, the GI50 was inactive: 39.2 µM.
In the case of `CCCCc1ccc(Nc2nc3c(ncn3C3CC(O)C(CN=[N+]=[N-])O3)c(=O)[nH]2)cc1` (stereo unspecified), the GI50 is reported as inactive: > 100 µM.
`O=C1C(Br)=C(Br)C(=O)c2ccc(=O)ccc21` was tested, and the GI50 was inactive: > 100 µM.
`CCOc1ccc(NC(=O)/C(Cc2nc3ccccc3nc2O)=N\O)cc1` was tested, and the GI50 was inactive: > 100 µM.
With `CCCC(CCC(N)=O)(CCC(N)=O)[N+](=O)[O-]` the GI50 was inactive: > 100 µM.
For `COC(=O)C(C(=O)C(=O)Nc1ccccc1C(C)=O)c1nc2ccc(Cl)cc2nc1O` (stereo unspecified), the GI50 was inactive: > 100 µM.
In the case of `COc1ccc(C(=O)Cn2c(C(=O)/C=C/c3ccco3)nc3ccccc32)cc1`, the GI50 is reported as inactive: 44.4 µM.
In the case of `CC(C)N(C(=O)c1cccc(C(=O)N(C(C)C)C(C)C)c1)C(C)C`, the GI50 is reported as inactive: > 100 µM.
For `O=[N+]([O-])C(C(Cl)=C(Cl)Cl)=C(n1cncn1)n1cncn1`, the GI50 was inactive: > 84.1 µM.
With `CCOC(=O)/C=C/c1c[nH]c(C(=O)OCC)c1` the GI50 was inactive: > 100 µM.
With `CCOC(=O)C1(Cc2ccc3c(c2)CCC3)Cc2cc3c(cc2C1=O)CCC3` (stereo unspecified) the GI50 was inactive: > 100 µM.
`CCCc1cc(=O)oc2c3c(c4c(c12)OC(C)(C)CC4)O[C@@H](C)[C@H](C)[C@H]3O` was tested, and the GI50 was inactive: 19.9 µM.
`COc1cc(/C=C/C(=O)c2ccc(NS(=O)(=O)c3cc([N+](=O)[O-])ccc3C)cc2)cc(OC)c1OC` was tested, and the GI50 was inactive: 5.26 µM.
For `CC/C(Cl)=N\OC(=O)Nc1ccc(OC)c(C)c1`, the GI50 was inactive: 45.4 µM.
In the case of `C[C@@]12C[C@@H](c3ccccc3O1)N1CCCCSC1=N2`, the GI50 is reported as inactive: > 100 µM.
`CC(=O)Oc1ccc2c(C)cc(=O)oc2c1OC(C)=O` was tested, and the GI50 was inactive: 29.5 µM.
In the case of `COc1ccc2oc(=N)c(C(N)=S)cc2c1`, the GI50 is reported as inactive: 29.2 µM.
In the case of `O=C(NC(CCCCN1C(=O)c2ccccc2C1=O)P(=O)(Oc1ccccc1)Oc1ccccc1)OCc1ccccc1` (stereo unspecified), the GI50 is reported as inactive: > 100 µM.
With `O=c1sc(Nc2ccc3ccccc3c2Cl)nc2ccccc12` the GI50 was inactive: > 100 µM.
`COC(=O)[C@H](CC(C)C)NC1=C(Cl)C(=O)c2c(O)ccc(O)c2C1=O` was tested, and the GI50 was inactive: > 10 µM.
In the case of `CCNC1C2(CCCCC2)NC(=O)C12CCCCC2` (stereo unspecified), the GI50 is reported as inactive: > 100 µM.
For `Cc1csc(/N=C(/NCCN2CCOCC2)Nc2nc(C)cs2)n1`, the GI50 was inactive: > 100 µM.
`C/C=C(/C)C(=O)O[C@H]1C(C)=C[C@]23C(=O)[C@@H](C=C(COC(C)=O)[C@@H](O)[C@]12O)[C@H]1[C@@H](C[C@H]3C)[C@@]1(C)OC(=O)/C(C)=C\C` was tested, and the GI50 was inactive: 3.07 µM.
In the case of `CCN(CC)CC(C(=O)Nc1c(C)cccc1C)/C(C)=N\NC(=O)C[N+](C)(C)C` (stereo unspecified), the GI50 is reported as inactive: > 100 µM.
With `CCCCCCC(C)c1ccc2c(c1)C(=O)c1nc3ccncc3c(=O)n1-2` (stereo unspecified) the GI50 was inactive: 3.44 µM.
`CC1(C)COC2C(N(Cc3ccccc3)Cc3ccccc3)C(=O)N21` (stereo unspecified) was tested, and the GI50 was inactive: 30.3 µM.
In the case of `C=C1CC[C@H]2C(=O)OC(c3ccoc3)C[C@]2(C)C/C=C\C=C/1C(=O)OC` (stereo partly specified), the GI50 is reported as inactive: > 25 µM.
With `CC1(C)[C@H](C(=O)O)N2C(=O)[C@@H](NS(=O)(=O)c3ccc([N+](=O)[O-])cc3)[C@H]2S1(=O)=O` the GI50 was inactive: > 100 µM.
With `COc1ccc(C(C#N)NCCCCCCNC(C#N)c2ccc(OC)cc2)cc1` (stereo unspecified) the GI50 was inactive: > 100 µM.
With `NNc1nc2ccccc2s1` the GI50 was inactive: > 100 µM.
In the case of `Cc1cc(S(=O)(=O)Nc2nc3ccccc3nc2-c2ccc(Cl)cc2)c(S)cc1Cl`, the GI50 is reported as inactive: 17.3 µM.
With `CN(C)C(=O)CO/N=C1/C(=C2/C(=O)Nc3ccccc32)Nc2ccccc21` the GI50 was inactive: > 100 µM.
`CCOC(=O)C(=O)N1C(C)=C(C(=O)OCC)CC(C(=O)OCC)=C1C` was tested, and the GI50 was inactive: > 100 µM.
For `O=C(Nc1ccc(Cl)c(Cl)c1)C(=O)C(C(=O)c1ccccc1-c1ccccc1)C1OC(=O)c2ccccc21` (stereo unspecified), the GI50 was inactive: 13.6 µM.
`Clc1ccc(OCc2nnc3n2N=C(c2ccc(Br)cc2)CS3)cc1` was tested, and the GI50 was inactive: 34.8 µM.
`O=[N+]([O-])c1ccc(-c2ccc([C@H]3CC(c4cc(F)c(Cl)cc4Cl)=NN3)o2)cc1` was tested, and the GI50 was active: 0.94 µM.
`CC1(C)CCC[C@]2(C)[C@@H]1CC[C@@]13O[C@@H]1C1=C(CO)C(=O)OC1=C[C@@H]23` was tested, and the GI50 was inactive: 19.7 µM.
In the case of `C=CCN1CN(C2CCCCC2)CSC1=S`, the GI50 is reported as inactive: 8.13 µM.
`COc1ccc(-c2cc3ccccc3oc2=O)cc1OC` was tested, and the GI50 was inactive: > 100 µM.
In the case of `NCCN(CCN)/[N+]([O-])=N/O`, the GI50 is reported as inactive: > 100 µM.
`O=C1N[C@@H]2C(=C[C@H](O)[C@@H](O)[C@H]2O)c2cc3c(c(O)c21)OCO3` [NARCICLASINE] was tested, and the GI50 was active: 0.045 µM.
With `CCOc1cccc2cccnc12` the GI50 was inactive: > 100 µM.
For `COc1ccc2c(=O)c(-c3cc(OC)c(OC)cc3OC)coc2c1`, the GI50 was inactive: 18.3 µM.
For `CN(C)CCC=C1c2ccccc2C=Cc2ccccc21` [CYCLOBENZAPRINE HYDROCHLORIDE], the GI50 was inactive: 9.95 µM.
With `O=C(CSc1nccc(=O)[nH]1)c1ccccc1` the GI50 was inactive: 50.6 µM.
For `FC(F)(F)c1ccc(C2ON=C(c3ccccc3)N2C23CC4CC(CC(C4)C2)C3)cc1` (stereo unspecified), the GI50 was inactive: > 10 µM.
For `Cc1ccc(NC(=S)N/N=C2\C(=O)Nc3ccccc32)cc1`, the GI50 was inactive: > 100 µM.
In the case of `CCOC(=O)c1ncn(CCc2ccc(Cl)cc2)c1C`, the GI50 is reported as inactive: > 100 µM.
For `COc1ccc(-c2nc(Nc3ccccc3)sc2Cc2sc(Nc3ccccc3)nc2-c2ccc(OC)cc2)cc1`, the GI50 was inactive: > 100 µM.
For `CS(=O)(=O)OCOS(C)(=O)=O`, the GI50 was inactive: > 100 µM.
With `Cc1cc(S(=O)(=O)[N-]/C(=N/S(=O)(=O)c2ccc(Cl)cc2)[n+]2ccc(N(C)C)cc2)c(SCC(=O)O)cc1Cl` the GI50 was inactive: 31.6 µM.
With `CC(=O)Nc1nc(NC(C)=O)c2nc(CO)[nH]c2n1` the GI50 was inactive: > 100 µM.
For `Cc1cn2c(/C=C3/C(=O)Nc4ccccc43)c(-c3ccccc3)nc2s1`, the GI50 was inactive: > 100 µM.
In the case of `COC(=O)C(=O)C(C(=O)C(=O)Nc1ccccc1C(=O)OC)c1nc2ccc(C(=O)c3ccccc3)cc2nc1O` (stereo unspecified), the GI50 is reported as inactive: > 100 µM.
With `CN(C)c1nc(N)nc(CS)n1` the GI50 was inactive: > 100 µM.
In the case of `CC(C)(C)C#CI1OC(=O)c2ccccc21`, the GI50 is reported as inactive: 11.7 µM.
`COc1cc(OC)c(OC)cc1/C=C1\C=Cc2ccccc21` was tested, and the GI50 was inactive: 24.4 µM.
For `O=C(CSc1nc(O)nc2[nH]cnc12)Nc1ccccc1`, the GI50 was inactive: > 100 µM.
With `O=C1CC2CCN(C(=O)c3ccccc3)CC2CCN1` (stereo unspecified) the GI50 was inactive: > 100 µM.
With `O=C1NCN(c2ccccc2)C12CCN(CCCN1CCN(CCOC(c3ccc(F)cc3)c3ccc(F)cc3)CC1)CC2` the GI50 was inactive: 1.97 µM.
`CC1(C)CCC(C)(C)c2c1ccc(O)c2Cc1c(O)ccc2c1C(C)(C)CCC2(C)C` was tested, and the GI50 was inactive: 2.37 µM.
`CC(=O)Nc1ccc(/C=C/C(=O)c2sc(C(N)=S)nc2C)cc1` was tested, and the GI50 was inactive: > 100 µM.
For `Nc1nnc(NC(=O)C2=NS(=O)(=O)c3cc(S(N)(=O)=O)c(Cl)cc3N2)[nH]1`, the GI50 was inactive: > 100 µM.
`Fc1c(F)c(F)c2c(c1F)CSc1nc3ccccc3n1-2` was tested, and the GI50 was inactive: > 100 µM.
For `O=C(CNc1ccccc1C(=O)O)Nn1cnc2ccc(S(=O)(=O)Nc3ccccc3C(=O)O)cc2c1=O`, the GI50 was inactive: > 100 µM.
For `COCCNc1cncc(C(N)=O)c1`, the GI50 was inactive: > 100 µM.
For `C=C(C)[C@@H]1CC[C@]2(C(=O)OC3OC(COC4OC(CO)C(OC5OC(C)C(O)C(O)C5O)C(O)C4O)C(O)C(O)C3O)CC[C@]3(C)[C@H](CC[C@@H]4[C@@]5(C)CC[C@H](O)[C@@](C)(CO)[C@@H]5CC[C@]43C)[C@@H]12` (stereo partly specified), the GI50 was inactive: 4.51 µM.
With `C[Si](C)(c1ccccc1)[C@H]1CCCC=C1CCNC1c2ccccc2CCc2ccccc21` the GI50 was inactive: > 100 µM.
With `Cc1cccc(/C=N/C23CC4CC(CC(C4)C2)C3)c1` the GI50 was inactive: > 100 µM.
For `c1csc(-c2ccsc2-c2cccs2)c1`, the GI50 was inactive: > 100 µM.
In the case of `CC1=C(Oc2ccccc2)C(CCC(=O)O)c2c(O)cc(Cl)c(O)c21` (stereo unspecified), the GI50 is reported as inactive: > 100 µM.
With `O=[N+]([O-])c1cc(CCl)ccc1CCl` the GI50 was inactive: 1.68 µM.
`O=C1OC(c2ccccc2)=N/C1=C\c1ccc(F)cc1` was tested, and the GI50 was inactive: > 100 µM.
For `COc1ccc2c(c1)C1Oc3ccccc3CC1(O)CO2` (stereo unspecified), the GI50 was inactive: > 100 µM.
With `COC1=C(Br)C(=O)c2nc(C)ccc2C1=O` the GI50 was inactive: 23.1 µM.
`Clc1ccc2cccc3c2c1C1OC3c2ccccc21` (stereo unspecified) was tested, and the GI50 was inactive: > 100 µM.
For `CCN(CC)CCN1CCN=c2c3cc(OC)ccc3n3cnc4ccc1c2c43`, the GI50 was active: 0.343 µM.
With `C1=CC=C2NCCC/N=C3/C=CC=CC=C3NCCC/N=C\2C=C1` the GI50 was inactive: > 100 µM.
`COc1cc2c([C@@H](OC(=O)c3ccccc3)c3ccc4c(c3)OCO4)nccc2c(OC)c1OC` was tested, and the GI50 was inactive: > 100 µM.
With `COc1ccc(-c2nc3ncccn3c2-c2ccc(S(C)(=O)=O)cc2)cc1` the GI50 was inactive: 39.4 µM.
In the case of `COC(=O)c1ccccc1Nc1nc(-c2cccs2)nc2cc(OC)c(OC)cc12`, the GI50 is reported as inactive: 43.3 µM.
